From the CheMixHub ionic liquid set
± gives the uncertainty stated by the source. Further values from the same series stand in other lists.

Experiment: xn = mol fraction of the nth substance listed
Settings: 101 kPa

COCCn1cc[n+](C)c1.N#C[S-] + CC1COC(=O)O1
Settings	electrical conductivity, 338.15 K [S/m]	electrical conductivity, 343.15 K [S/m]	viscosity, 338.15 K [mPa·s]	viscosity, 343.15 K [mPa·s]
x1 = 0.1022	2.34 ± 0.047	2.51 ± 0.05	1.44 ± 0.29	1.36 ± 0.27
x1 = 0.2001	3.15 ± 0.063	3.42 ± 0.068	1.73 ± 0.35	1.63 ± 0.33
x1 = 0.3021	3.15 ± 0.063	3.43 ± 0.069	2.2 ± 0.44	2.05 ± 0.41
x1 = 0.3996	2.95 ± 0.059	3.2 ± 0.064	2.69 ± 0.54	2.42 ± 0.48
x1 = 0.5012	2.71 ± 0.054	2.96 ± 0.059	3.18 ± 0.64	2.91 ± 0.58
x1 = 0.6015	2.49 ± 0.05	2.74 ± 0.055	3.92 ± 0.79	3.64 ± 0.73
x1 = 0.7032	2.27 ± 0.045	2.54 ± 0.051	5.1 ± 1	4.69 ± 0.94
x1 = 0.8004	2.06 ± 0.041	2.33 ± 0.047	6.8 ± 1.4	6.2 ± 1.2
x1 = 0.9002	1.88 ± 0.038	2.11 ± 0.042	9.2 ± 1.9	8.5 ± 1.7
x1 = 1	1.72 ± 0.034	1.92 ± 0.038	12.9 ± 2.6	11.3 ± 2.3

CCCCCCCCCCCC[N+](C)(C)Cc1ccccc1.[Cl-] + C[C@H](N)C(=O)O + O
electrical conductivity [S/m]
Settings	308.15 K	313.15 K
x2 = 0.0009017, x1 = 0.000273	–	0.125 ± 0.0076
x2 = 0.0009017, x1 = 0.0002923	–	0.13 ± 0.0079
x2 = 0.0009017, x1 = 0.00031	–	0.135 ± 0.0082
x2 = 0.0009017, x1 = 0.0003245	–	0.138 ± 0.0085
x2 = 0.0009018, x1 = 0.0001745	–	0.0955 ± 0.0059
x2 = 0.0009018, x1 = 0.0002014	–	0.104 ± 0.0064
x2 = 0.0009018, x1 = 0.0002282	–	0.112 ± 0.0069
x2 = 0.0009018, x1 = 0.0002515	–	0.119 ± 0.0073
x2 = 0.0009019, x1 = 5.732e-05	–	0.0341 ± 0.0021
x2 = 0.0009019, x1 = 7.956e-05	–	0.0468 ± 0.0029
x2 = 0.0009019, x1 = 0.0001004	–	0.0583 ± 0.0036
x2 = 0.0009019, x1 = 0.0001231	–	0.0708 ± 0.0044
x2 = 0.0009019, x1 = 0.0001486	–	0.0843 ± 0.0052
x2 = 0.001773, x1 = 8.528e-05	–	0.0495 ± 0.0032
x2 = 0.001773, x1 = 0.0001054	–	0.0605 ± 0.0039
x2 = 0.001773, x1 = 0.0001263	–	0.072 ± 0.0046
x2 = 0.001773, x1 = 0.00015	–	0.0843 ± 0.0053
x2 = 0.001773, x1 = 0.000176	–	0.095 ± 0.0058
x2 = 0.001773, x1 = 0.0002016	–	0.103 ± 0.0063
x2 = 0.001773, x1 = 0.0002266	–	0.111 ± 0.0068
x2 = 0.001773, x1 = 0.0002493	–	0.117 ± 0.0072
x2 = 0.001773, x1 = 0.0002699	0.11 ± 0.0067	0.123 ± 0.0075
x2 = 0.001773, x1 = 0.0002888	0.115 ± 0.0071	0.128 ± 0.0079
x2 = 0.001773, x1 = 0.0003053	0.119 ± 0.0073	0.133 ± 0.0082
x2 = 0.001773, x1 = 0.0003178	0.123 ± 0.0077	0.137 ± 0.0085
x2 = 0.001774, x1 = 6.278e-05	–	0.0369 ± 0.0024

CCCCCCCCCCCC[N+](C)(C)Cc1ccccc1.[Cl-] + NCC(=O)O + O
electrical conductivity [S/m]
Settings	308.15 K	313.15 K
x2 = 0.0008873, x1 = 0.0002851	–	0.128 ± 0.0078
x2 = 0.0008873, x1 = 0.0003053	–	0.134 ± 0.0082
x2 = 0.0008873, x1 = 0.0003201	–	0.138 ± 0.0084
x2 = 0.0008874, x1 = 0.0001939	–	0.102 ± 0.0063
x2 = 0.0008874, x1 = 0.0002197	–	0.11 ± 0.0067
x2 = 0.0008874, x1 = 0.0002434	–	0.117 ± 0.0072
x2 = 0.0008874, x1 = 0.0002654	–	0.123 ± 0.0075
x2 = 0.0008875, x1 = 5.836e-05	–	0.0349 ± 0.0022
x2 = 0.0008875, x1 = 8.059e-05	–	0.0474 ± 0.003
x2 = 0.0008875, x1 = 0.0001014	–	0.0589 ± 0.0037
x2 = 0.0008875, x1 = 0.0001212	–	0.0699 ± 0.0043
x2 = 0.0008875, x1 = 0.0001444	–	0.0821 ± 0.0051
x2 = 0.0008875, x1 = 0.0001686	–	0.0935 ± 0.0058
x2 = 0.001759, x1 = 5.744e-05	–	0.0349 ± 0.0022
x2 = 0.001759, x1 = 7.9e-05	–	0.047 ± 0.003
x2 = 0.001759, x1 = 9.947e-05	–	0.0584 ± 0.0037
x2 = 0.001759, x1 = 0.0001207	–	0.0699 ± 0.0044
x2 = 0.001759, x1 = 0.0001453	–	0.0829 ± 0.0052
x2 = 0.001759, x1 = 0.0001712	–	0.0942 ± 0.0058
x2 = 0.001759, x1 = 0.0001971	–	0.103 ± 0.0063
x2 = 0.001759, x1 = 0.0002216	–	0.11 ± 0.0067
x2 = 0.001759, x1 = 0.0002442	–	0.117 ± 0.0072
x2 = 0.001759, x1 = 0.000265	0.11 ± 0.0068	0.123 ± 0.0075
x2 = 0.001759, x1 = 0.000284	0.115 ± 0.0071	0.128 ± 0.0078
x2 = 0.001759, x1 = 0.0003018	0.119 ± 0.0073	0.133 ± 0.0081
x2 = 0.001759, x1 = 0.0003141	0.122 ± 0.0075	0.136 ± 0.0083
